According to US20250387505A1, “ANTI-FGFR3 ANTIBODY CONJUGATE AND MEDICAL USE THEREOF” (GENEQUANTUM HEALTHCARE (SUZHOU) CO., LTD., priority 2022, published 2025):

What was measured:
[1] = test system: AMB-BT-0050T cells (positive FGFR3 expression); assay: Cell binding analysis by flow cytometry; assay type: cell-based, human; conditions: FIG. 6.1
Experimental: 1) The cell surface binding efficiency of anti-FGFR3 antibodies were analyzed using flow cytometry. About 3.0×10^5 to 5.0×10^5 FGFR3-overexpressing or FGFR3 non-expression cells were incubated with anti-FGFR3 antibodies at 4° C. for 1 h. After washing twice with Flow Cytometry Staining Buffer, the cells were stained with the goat anti-human IgG cross-adsorbed secondary antibody conjugated with Alexa Fluor 488 (Invitrogen, A-11013, Carlsbad, CA, USA) diluted 1:200 in staining buffer at 4° C. for 30 min. Mean fluorescence intensity was analyzed by flow cytometry.
The results of this analysis are shown in FIGS. 5 and 6.1, wherein AMB-BT-0050T is a cell with positive FGFR3 expression, while AMB-BT-0013T is a cell with negative FGFR3 expression. AMB-BT-0050T, AMB-BT-0013T is sampled from patients suffering brain cancer (glioblastoma).

RT112 cells = assay: Bladder cancer CDX model; assay type: in vivo, BALB/c nude mice; conditions: 5 mg/kg, QW, 2 times
Experimental: (§1) 8.1) RT112 cells in exponential growth stage were collected and counted for tumor inoculation. 0.2 mL of matrix gel buffer (PBS:Matrigel=1:1) was used to subcutaneously inject 10×10^6 cells into the right flank of SPF female BALB/c nude mice aged 6-8 weeks.
(§2) The tumor diameter was measured with a caliper and the tumor volume was calculated according to the formula V=0.5 a×b^2 (wherein a is the long diameter of the tumor and b is the short diameter of the tumor). When the mean tumor volume was about 100-300 mm^3, the mice were randomized into vehicle group, ADC19 5 mg/kg group and ADC20 5 mg/kg group. The day of first administration is defined as day 0. Mice in the vehicle group were given the solvent of ADC drugs with the same frequency and administration route. The tumor volume of mice in each group was measured twice a week. The experiment was end on day 27, and the tumor growth inhibition rate (TGI) was calculated as follows: TGI (%)=[1−(the mean tumor volume of the treatment group on the end day−the mean tumor volume of the treatment group on the first day)/(the mean tumor volume of the vehicle group on the end day−the mean tumor volume of the vehicle group on the first day)]×100%.
8.2) For evaluation the dose-dependent antitumor efficacy in bladder cancers, the RT112 cells bearing BALB/c nude mice were randomized grouped and treated by solvent; ADC20 8 mg/kg single dose and ADC20 8 mg/kg, QW, 2 times. The experiment was end on day 33, and the tumor growth inhibition rate (TGI) was calculated as follows: TGI (%)=[1−(the mean tumor volume of the treatment group on the end day−the mean tumor volume of the treatment group on the first day)/(the mean tumor volume of the vehicle group on the end day−the mean tumor volume of the vehicle group on the first day)]×100%. The ADC groups continued to be observed until day 84.

[2] = test system: FGFR3-positive RT112 cells and FGFR3-negative U87MG cells; assay: Bystander killing effect in RT112/U87MG co-culture; assay type: cell-based; conditions: incubation for a week, FIG. 11
Experimental: Far-Red labelled FGFR3-positive RT112 cells and CFSE labelled FGFR3-negative U87MG cells were seeded onto 96 well round bottom plate with 1.0×10^4 cells for each cell types. The cells were incubated overnight for stable adhesion to plate, followed by treatment with ADCs or PBS and incubation for a week. After incubation, the cells were centrifuged at 2300 rpm for 2 min, and then supernatant was discarded. The cells were washed once with PBS, detached, and resuspended into flow cytometry staining buffer containing LIVE/DEAD staining dye. Finally, the total amount of FGFR3-positive and FGFR3-negative cells and their viability were detected and analyzed by Flow cytometer (Novocyte, Agilent).

AMB-BT-0013T = assay: In vitro cytotoxicity, 3D single spheroid model; assay type: cell-based, human; conditions: AMB-BT-0013T GBM PDCs, FGFR3 expression −, incubated for a week
Experimental: (§3) 1) 3D single spheroid model was formed by isolating cancer cells derived from glioblastoma patients. Two types of patient-derived cells with FGFR3 overexpression (AMB-BT-0050T, AMB-BT-0112T) and FGFR3 non-expression derived cells (AMB-BT-0013T), sampled from patients suffering from glioblastoma, were incubated overnight to form single spheroids (3D), followed by ADC was treated and incubated for a week, and then spheroid size and volume were quantified.

AMB-BT-0050T = assay: In vitro cytotoxicity, 3D single spheroid model; assay type: cell-based, human; conditions: AMB-BT-0050T GBM PDCs, FGFR3 expression +++, incubated for a week
Experimental: as §3

KMS11 cells = assay: Multiple myeloma CDX model; assay type: in vivo, CB17.SCID mice; conditions: 5 mg/kg, QW, 2 times, day 32
Experimental: as §1, with “To evaluate the in vivo anti-tumor efficacy of ADC19 and ADC20 in mice bearing multiple myeloma FGFR3 overexpressed CDX model, KMS11” for “8.1) RT112”, “CB17.SCID” for “BALB/c nude”
as §2, with “a×b^2.” for “a×b^2 (wherein a is the long diameter of the tumor and b is the short diameter of the tumor).”, “32,” for “27,”

SW780 cells = assay: Bladder cancer CDX model; assay type: in vivo, NOD SCID mice; conditions: 5 mg/kg, QW, 2 times, day 20
Experimental: 8.3) SW780 cells in exponential growth stage were collected and counted for tumor inoculation. 0.2 mL of matrix gel buffer (PBS:Matrigel=1:1) was used to subcutaneously inject 10×10^6 cells into the right flank of SPF female NOD SCID mice aged 6-8 weeks.
as §2, with “a×b^2.” for “a×b^2 (wherein a is the long diameter of the tumor and b is the short diameter of the tumor).”, “20,” for “27,”

B1: A9Q (antibody)
heavy: EVQLLESGGGLVQPGGSLRLSCAASGFTFSSYDMSWVRQAPGKGLEWVSGIYSGDGSIYYADSVKGRFTISRDNSKNTLYLQMNSLRAEDTAVYYCAKDGPMNEESRFDYWGQGTLVTVSS[human IgG1 constant region not written out]
light: QSVLTQPPSASGTPGQRVTISCSGSSSNIGNNYVSWYQQLPGTAPKLLIYADSKRPSGVPDRFSGSKSGTSASLAISGLRSEDEADYYCASWDYSLSGYVFGGGTKLTVLGQPKAAPSVTLFPPSSEELQANKATLVCLISDFYPGAVTVAWKADSSPVKAGVETTTPSKQSNNKYAASSYLSLTPEQWKSHRSYSCQVTHEGSTVEKTVAPTECGALPETGG
With B1 the “binding to AMB-BT-0050T cells” value [1] was “bind to AMB-BT-0050T cells”.

B2: ADC19: ADC formed by ligase site-specific conjugation of Linker-Payload 1 (from MC-GGFG-DXd) to anti-FGFR3 antibody A9Q (conjugate)
heavy: B1 heavy
light: B1 light
For B2, the TGI (RT112 cells; day 27) was 106.35%, the Tumor volume (RT112 cells; day 27, Mean ± SEM) was 48 ± 9 mm^3 and the bystander killing effect [2] was “have bystander killing effect”. The IC50 (AMB-BT-0013T) was 400 nM, the IC50 (AMB-BT-0050T) was 1 nM and the TGI (KMS11 cells) was 108.41%. The Tumor volume (KMS11 cells) was 9 ± 0 mm^3, the TGI (SW780 cells) was 40.80% and the Tumor volume (SW780 cells) was 1,109 ± 100 mm^3.
